# From the supplement of paper PMC8728848
# Some of the results follow.
# B1: Fm1D (Escherichia coli) (protein)
# chain: FSCNVDGGSSIGAGTTSVYVNLDPVIQPGQNLVVDLSQHISCWNDYGGWYDTDHINLVQGSAFAGSLQSYKGSLYWNNVTYPFPLTTNTNVLDIGDKTPMPLPLKLYITPVGAAGGVVIKAGEVIARIHMYKIATLGSGNPRNFTWNIISNNSVVMPTHHHHHH
# What was measured:
# Assay in all cases: glycan array binding signal (z-score within array); higher = stronger binding
# Settings in all cases: glycan notation: IUPAC condensed, linker removed
# Neu5Ac(a2-8)Neu5Ac = biological target: Neu5Ac(a2-8)Neu5Ac
# In short: (§1)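 Arrays were curated from the Consortium for Functional Glycomics database, 3228 in total, and kept only where the protein sequence was available. Binding is expressed as a within-array Z-score. This score was averaged across arrays of the same protein sequence at different concentrations or buffers and across linkers, and negative values can be read as non-binding.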
# [1] = biological target: Neu5Ac(a2-8)Neu5Ac(a2-3)Gal(b1-3)GalNAc(b1-4)[Neu5Ac(a2-3)]Gal(b1-4)Glc
# In short: as §1
# [2] = biological target: Neu5Ac(a2-8)Neu5Ac(a2-3)Gal(b1-3)GalNAc(b1-4)[Neu5Ac(a2-8)Neu5Ac(a2-3)]Gal(b1-4)Glc
# In short: as §1
# [3] = biological target: Neu5Ac(a2-8)Neu5Ac(a2-3)Gal(b1-4)Glc
# In short: as §1
# [4] = biological target: Neu5Ac(a2-8)Neu5Ac(a2-3)Gal(b1-4)GlcNAc
# In short: as §1
# [5] = biological target: Neu5Ac(a2-8)Neu5Ac(a2-3)[Gal(b1-3)GalNAc(b1-4)]Gal(b1-4)Glc
# In short: as §1
# [6] = biological target: Neu5Ac(a2-8)Neu5Ac(a2-3)[GalNAc(b1-4)]Gal(b1-4)Glc
# In short: as §1
# [7] = biological target: Neu5Ac(a2-8)Neu5Ac(a2-8)Neu5Ac
# In short: as §1
# [8] = biological target: Neu5Ac(a2-8)Neu5Ac(a2-8)Neu5Ac(a2-3)Gal(b1-4)Glc
# In short: as §1
# [9] = biological target: Neu5Ac(a2-8)Neu5Ac(a2-8)Neu5Ac(a2-3)[Gal(b1-3)GalNAc(b1-4)]Gal(b1-4)Glc
# In short: as §1
# [10] = biological target: Neu5Ac(a2-8)Neu5Ac(a2-8)Neu5Ac(a2-3)[GalNAc(b1-4)]Gal(b1-4)Glc
# In short: as §1
# [11] = biological target: Neu5Ac(a2-8)Neu5Ac(a2-8)Neu5Ac(a2-8)Neu5Ac(a2-3)[GalNAc(b1-4)]Gal(b1-4)Glc
# In short: as §1
# [12] = biological target: Neu5Ac(a2-8)Neu5Gc(a2-3)Gal(b1-4)GlcNAc
# In short: as §1
# [13] = biological target: Neu5Ac(b2-6)Gal(b1-4)GlcNAc
# In short: as §1
# Neu5Ac(b2-6)GalNAc = biological target: Neu5Ac(b2-6)GalNAc
# In short: as §1
# [14] = biological target: Neu5Ac9Ac(a2-3)Gal(b1-4)GlcNAc
# In short: as §1
# [15] = biological target: Neu5Ac9Ac(a2-6)Gal(b1-4)GlcNAc
# In short: as §1
# [16] = biological target: Neu5Gc(a2-3)Gal(b1-3)GlcNAc
# In short: as §1
# [17] = biological target: Neu5Gc(a2-3)Gal(b1-3)[Fuc(a1-4)]GlcNAc
# In short: as §1
# Neu5Gc(a2-3)Gal(b1-4)Glc = biological target: Neu5Gc(a2-3)Gal(b1-4)Glc
# In short: as §1
# [18] = biological target: Neu5Gc(a2-3)Gal(b1-4)GlcNAc
# In short: as §1
# [19] = biological target: Neu5Gc(a2-3)Gal(b1-4)GlcNAc(b1-3)Gal(b1-4)GlcNAc(b1-2)Man(a1-3)[Neu5Gc(a2-3)Gal(b1-4)GlcNAc(b1-3)Gal(b1-4)GlcNAc(b1-2)Man(a1-6)]Man(b1-4)GlcNAc(b1-4)GlcNAc
# In short: as §1
# [20] = biological target: Neu5Gc(a2-3)Gal(b1-4)[Fuc(a1-3)]GlcNAc
# In short: as §1
# [21] = biological target: Neu5Gc(a2-6)Gal(b1-4)GlcNAc
# In short: as §1
# Neu5Gc(a2-6)GalNAc = biological target: Neu5Gc(a2-6)GalNAc
# In short: as §1
# [22] = biological target: Neu5Gc(a2-8)Neu5Ac(a2-3)Gal(b1-4)GlcNAc
# In short: as §1
# [23] = biological target: Neu5Gc(a2-8)Neu5Gc(a2-3)Gal(b1-4)GlcNAc
# In short: as §1
# [24] = biological target: Neu5Gc(a2-8)Neu5Gc(a2-3)Gal(b1-4)GlcNAc(b1-3)Gal(b1-4)GlcNAc
# In short: as §1
# [25] = biological target: Neu5Gc(a2-8)Neu5Gc(a2-6)Gal(b1-4)GlcNAc
# In short: as §1
# [26] = biological target: Neu5Gc(b2-6)Gal(b1-4)GlcNAc
# In short: as §1
binder,measurement,setting,value
B1,glycan array binding signal (z-score),Neu5Ac(a2-8)Neu5Ac,-0.144
same,glycan array binding signal (z-score),[1],-0.149
same,glycan array binding signal (z-score),[2],-0.134
same,glycan array binding signal (z-score),[3],-0.143
same,glycan array binding signal (z-score),[4],-0.145
same,glycan array binding signal (z-score),[5],-0.147
same,glycan array binding signal (z-score),[6],-0.149
same,glycan array binding signal (z-score),[7],-0.147
same,glycan array binding signal (z-score),[8],-0.141
same,glycan array binding signal (z-score),[9],-0.14
same,glycan array binding signal (z-score),[10],-0.152
same,glycan array binding signal (z-score),[11],-0.146
same,glycan array binding signal (z-score),[12],-0.15
same,glycan array binding signal (z-score),[13],-0.142
same,glycan array binding signal (z-score),Neu5Ac(b2-6)GalNAc,-0.145
same,glycan array binding signal (z-score),[14],-0.15
same,glycan array binding signal (z-score),[15],-0.147
same,glycan array binding signal (z-score),[16],-0.138
same,glycan array binding signal (z-score),[17],-0.144
same,glycan array binding signal (z-score),Neu5Gc(a2-3)Gal(b1-4)Glc,-0.146
same,glycan array binding signal (z-score),[18],-0.146
same,glycan array binding signal (z-score),[19],-0.139
same,glycan array binding signal (z-score),[20],-0.148
same,glycan array binding signal (z-score),[21],-0.144
same,glycan array binding signal (z-score),Neu5Gc(a2-6)GalNAc,-0.143
same,glycan array binding signal (z-score),[22],-0.149
same,glycan array binding signal (z-score),[23],-0.146
same,glycan array binding signal (z-score),[24],-0.151
same,glycan array binding signal (z-score),[25],-0.146
same,glycan array binding signal (z-score),[26],-0.143
